This is an account of results in paper PMC3418287.

Amino acid sequences for entries named in this document (tags omitted).
UniProt Q15370: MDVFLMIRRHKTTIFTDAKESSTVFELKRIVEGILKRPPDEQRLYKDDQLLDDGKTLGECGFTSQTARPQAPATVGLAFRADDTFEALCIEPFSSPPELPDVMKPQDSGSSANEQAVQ

Results are given in words; binding and its absence hold for the method and conditions named. Binding seen in cells or lysates may run through a third protein. Some binding calls cover weakened binding; strength is not graded here. For some assays here: Where a sequence is shown, tags or fusion partners need not be part of it.

The target of experiment [1] is StrepII-Myc-3xHA-PRAME (K562 stable line) (human) (UniProt P78395). As to the kind of experiment: co-IP; immunoblot of TAG-PRAME, TAG-OSGEP or TAG-LAGE3 complexes purified from K562 cells (Fig. 2, Fig. 5B); mock purification on wild type cells; TAG-OSGEP and TAG-LAGE3 also with stable knock-down of endogenous PRAME. A general note: A western blot detects proteins with antibodies after separation by electrophoresis.

The target in experiment [2] is T1, TAG-OSGEP (K562 stable line) (human) (UniProt Q9NPF4).
T1 sequence: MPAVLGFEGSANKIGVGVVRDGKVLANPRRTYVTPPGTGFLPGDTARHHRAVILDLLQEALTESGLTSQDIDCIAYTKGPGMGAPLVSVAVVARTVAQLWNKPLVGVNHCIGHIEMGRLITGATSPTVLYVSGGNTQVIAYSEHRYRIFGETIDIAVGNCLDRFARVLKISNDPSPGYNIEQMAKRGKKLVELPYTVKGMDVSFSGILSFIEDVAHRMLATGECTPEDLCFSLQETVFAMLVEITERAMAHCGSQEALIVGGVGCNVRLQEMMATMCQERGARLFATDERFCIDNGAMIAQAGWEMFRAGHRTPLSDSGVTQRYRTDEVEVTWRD
The experiment is described as above.

Experiment [3] deals with T2, TAG-LAGE3 (K562 stable line) (human) (UniProt Q14657).
T2 sequence: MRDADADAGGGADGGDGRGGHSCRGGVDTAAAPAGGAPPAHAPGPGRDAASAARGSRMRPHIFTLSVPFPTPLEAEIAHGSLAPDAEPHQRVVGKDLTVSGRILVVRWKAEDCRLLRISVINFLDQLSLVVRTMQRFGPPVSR
The experiment is described as above.

Experiment [4] deals with TAG-PRAME (transient, HEK293T) (human) (UniProt P78395). Description: co-IP; transient transfection of 293T cells; TAG-PRAME (wild type or M2) precipitated with rabbit HA antibody; TTE-tagged proteins detected with BB2 (TY1 tag).
In experiment [5] the target is FLAG-PRAME (human) (UniProt P78395). Description: co-IP; Sf21 cells co-infected with baculoviruses for FLAG-PRAME and combinations of the four EKC subunits; anti-FLAG immunoprecipitation; lysates and eluates by western blotting.

As for “Elongin B (TCEB2 Transcription elongation factor B polypeptide 2) (from UniProt Q15370 1-118)”, the binding result in experiment [1] is “binds”.
Consider “endogenous PRAME (from UniProt P78395 1-509)”, for which the binding entry in experiment [2] is listed as “binds”.
With “endogenous TPRKB (TP53RK-binding protein) (from UniProt Q9Y3C4 1-175)”, the binding result in experiment [1] is given as “no binding”; in experiment [3] it was “binds”.

B1: TTE-LAGE3 (protein, UniProt Q14657 1-143)
chain: MRDADADAGGGADGGDGRGGHSCRGGVDTAAAPAGGAPPAHAPGPGRDAASAARGSRMRPHIFTLSVPFPTPLEAEIAHGSLAPDAEPHQRVVGKDLTVSGRILVVRWKAEDCRLLRISVINFLDQLSLVVRTMQRFGPPVSR
For B1, in experiment [4], the binding result was “binds”.

B2: HA-LAGE3 (protein, UniProt Q14657 1-143)
chain: MRDADADAGGGADGGDGRGGHSCRGGVDTAAAPAGGAPPAHAPGPGRDAASAARGSRMRPHIFTLSVPFPTPLEAEIAHGSLAPDAEPHQRVVGKDLTVSGRILVVRWKAEDCRLLRISVINFLDQLSLVVRTMQRFGPPVSR
With B2, the binding entry in experiment [5] is “binds”.

B3: TTE-OSGEP (protein, UniProt Q9NPF4 1-335)
chain: MPAVLGFEGSANKIGVGVVRDGKVLANPRRTYVTPPGTGFLPGDTARHHRAVILDLLQEALTESGLTSQDIDCIAYTKGPGMGAPLVSVAVVARTVAQLWNKPLVGVNHCIGHIEMGRLITGATSPTVLYVSGGNTQVIAYSEHRYRIFGETIDIAVGNCLDRFARVLKISNDPSPGYNIEQMAKRGKKLVELPYTVKGMDVSFSGILSFIEDVAHRMLATGECTPEDLCFSLQETVFAMLVEITERAMAHCGSQEALIVGGVGCNVRLQEMMATMCQERGARLFATDERFCIDNGAMIAQAGWEMFRAGHRTPLSDSGVTQRYRTDEVEVTWRD
As to B3, the binding result in experiment [4] is reported as “binds”.

B4: c-Myc-OSGEP (protein, UniProt Q9NPF4 1-335)
chain: MPAVLGFEGSANKIGVGVVRDGKVLANPRRTYVTPPGTGFLPGDTARHHRAVILDLLQEALTESGLTSQDIDCIAYTKGPGMGAPLVSVAVVARTVAQLWNKPLVGVNHCIGHIEMGRLITGATSPTVLYVSGGNTQVIAYSEHRYRIFGETIDIAVGNCLDRFARVLKISNDPSPGYNIEQMAKRGKKLVELPYTVKGMDVSFSGILSFIEDVAHRMLATGECTPEDLCFSLQETVFAMLVEITERAMAHCGSQEALIVGGVGCNVRLQEMMATMCQERGARLFATDERFCIDNGAMIAQAGWEMFRAGHRTPLSDSGVTQRYRTDEVEVTWRD
B4: the binding result in experiment [5] was “binds”.
